Source: PubChem BioAssay AID504832 (National Center for Advancing Translational Sciences (NCATS), 2011)
Where “and” joins values, the source holds several entries; their conditions need not be identical. Identical values can stand only once. The whole screen tested about 310,000 compounds, of which about 18,000 (5.8%) were called active. Inconclusive means that the source gave no clear call. Such entries were picked first, then a sample of the others. Calls follow the shape of the dose curve; as a rule, active = well fitted inhibition curve with a large enough effect; inconclusive = small, poorly fitted or top-dose-only effect, or another doubt; inactive = no such curve, though single readings can be large or run the other way. Potencies of inconclusive entries are doubtful fits and often do not repeat.

Assay: Primary qHTS for delayed death inhibitors of the malarial parasite plastid, 48 hour incubation
Conditions: P. falciparum luciferase growth in erythrocytes; series mostly up to 28.7 µM
How it was run: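 Compounds are pin-transferred into medium, infected erythrocytes (2% hematocrit, 0.1% parasitemia final) are added, and plates sit one parasite generation at 37 C in 5% CO2. Detection reagent is then added and luminescence measured.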
Potency is read from the fitted curve at half-maximal effect; tags tell the direction and shape of the fitted curve.

Compound	Potency
Cc1cc(C)c(C(=O)CSc2nnc(-c3ccccc3Br)o2)cc1C	inactive
CCN(CC(=O)Nc1c(F)cccc1F)C(=O)CSCC(=O)Nc1ccc(OC)cc1	inactive
CC(=O)N1CCN(C(=O)c2cccc(S(=O)(=O)NCc3ccccc3)c2)CC1	inactive
CCOc1ccc(-c2cccc(NC(=O)c3ccco3)c2)nn1	inconclusive: 11.7 µM [inhibitor, single point]
COc1ccc(OC)c(CN2CCC(C(=O)N(C)CCc3ccc(OC)c(OC)c3)CC2)c1	inconclusive: 5.22 µM [inhibitor, partial curve]
CC(=O)c1cccc(NC(=O)Nc2cccnc2)c1	inactive
CCOC(=O)c1nn(-c2ccccc2)c(C#N)c1NC(=O)c1nn(CC)cc1Br	inconclusive: 11.7 µM [inhibitor, partial curve, poor fit]
CCC(=O)c1ccccc1OCCCN1CCC(Cc2ccccc2)CC1	inconclusive: 7.38 µM [inhibitor, partial curve]
COc1ccc(-c2c(-c3cc(OC)cc(OC)c3)n(C)c3ccc(-c4ccc(N(C)C)nc4)cc23)cc1	inconclusive: 2.08 µM [inhibitor, partial curve, poor fit]
N#Cc1ccc(CN2CCN(c3ccc(S(=O)(=O)N4CCCC4)cn3)CC2)cc1	inconclusive: 13.1 µM [inhibitor, single point]
O=C(O)CC1(CC(=O)Nc2ccc(C(F)(F)F)cc2)CCCC1	inconclusive: 2.08 µM [inhibitor, full curve]
C#CCNC(=O)C1=C[C@H](c2ccc(C(F)(F)F)cc2)[C@@H](CCCO)[C@H](OCC)O1	inactive
O=C(NCCCN1CCOCC1)c1ccc(NC(=O)C2COc3ccccc3O2)cc1 (centres undefined)	inconclusive: 18.5 µM [inhibitor, single point]
COc1cc([N+](=O)[O-])ccc1NC(=O)Cc1ccc(F)cc1	inactive
Cc1ccc(C)c(S(=O)(=O)N2CCN(C(=O)Cn3c(C(F)(F)F)nc4ccccc43)CC2)c1	inconclusive: 18.5 µM [inhibitor, single point]
Cc1ccc(NC(=O)CSc2nnc(Cc3cccn3C)n2-c2ccc(F)cc2)cc1	inconclusive: 13.1 µM [inhibitor, single point]
CC[C@H]1OC(=O)C[C@@H](O)[C@H](C)[C@@H](O[C@@H]2O[C@H](C)C[C@H](N(C)C)[C@H]2O)[C@@H](CC=O)C[C@@H](C)C(=O)C=C[C@]2(C)O[C@H]2[C@@H]1C	active: 4.65 µM
CN1C(=O)C(C)(C)c2cc(S(=O)(=O)N3CCC(C(=O)NCc4ccc(F)cc4)CC3)ccc21	inconclusive: 0.104 µM [inhibitor, full curve, poor fit]
COc1ccc(Nc2cc(C)nc3ccccc23)cc1	inactive
Nn1cc(-c2ccccc2)nc1SCC(=O)N1CCN(S(=O)(=O)c2ccc3ccccc3c2)CC1	active: 9.28 µM
C/C(=N\NC(=O)c1ccn(C)n1)c1ccc(NC(=O)c2cccc(F)c2)cc1	inactive
N#Cc1nc(-c2ccc(OCc3ccccc3Cl)cc2)oc1NCCCn1ccnc1	active: 1.65 µM

Compound	Potency
Cc1c(CCOC(=O)C23CC4CC(CC(C)(C4)C2)C3)sc[n+]1CC(=O)c1ccccc1	inconclusive: 18.5 µM [inhibitor, single point]
CCOC(=O)N1CCN(c2ccc(S(=O)(=O)N3CCOCC3)cc2[N+](=O)[O-])CC1	inconclusive: 10.4 µM [inhibitor, single point]
CCOC(=O)C1CCN(Cc2ccc(OCc3ccccc3)cc2)CC1	inactive
COc1cccc(C2=CC(c3cccc(OC)c3OC(F)F)n3nnnc3N2)c1 (centres undefined)	inconclusive: 2.08 µM [inhibitor, partial curve]
CCOC(=O)N1CCC(NC(=O)c2sc(-n3cccc3)nc2C)CC1	inactive
O=C(C1CC1)N1CCc2cc(S(=O)(=O)N(CCO)Cc3ccccc3)ccc21	inconclusive: 18.5 µM [inhibitor, single point]
CCOC(=O)c1c(NC(=O)CN2C(=O)C(=O)N(CC(C)C)C2=O)sc(C)c1CC	inconclusive: 11.7 µM [inhibitor, single point]
Cn1cc(/C=C(\NC(=O)c2ccccc2Cl)C(=O)NCCCn2ccnc2)c2ccccc21	inconclusive: 14.7 µM [inhibitor, single point]
COc1cccc(NC(=O)CSc2nnc3ccc(-c4ccncc4)nn23)c1	inactive
CC(C)(C)c1ccc(OCC(=O)O)cc1	inactive and inconclusive: 14.7 µM [inhibitor, single point]
Cc1ccc(S(=O)(=O)c2cc(N3CCOCC3)nc(-c3ccccc3)n2)cc1	inconclusive: 18.5 µM [inhibitor, single point]
NC(Cc1ccc(O)cc1)c1cn([C@@H](CCC(=O)O)C(=O)N2CCNCC2)nn1 (some centres undefined)	inactive
Cc1cccc(/C=C/C(=O)c2cc(Br)ccc(=O)c2O)c1	inconclusive: 10.4 µM [inhibitor, single point]
C=CCOC(=O)C(C#N)c1nc2ccccc2nc1N1CCC(C(=O)OCC)CC1 (centres undefined)	active: 1.17 µM
CCOc1ccccc1C(=O)Nc1cc(C(=O)NCCc2ccccc2)ccc1Cl	inconclusive: 1.47 µM [inhibitor, full curve]
CCc1ccc2nc(N(CCCN(C)C)C(=O)c3ccc4c(c3)OCCO4)sc2c1	active: 3.29 µM
CCCCN1CN(S(=O)(=O)c2cccs2)c2nc3ccccc3nc21	inactive
O=C(CCCOc1ccc(Cl)cc1)NC1CCCCC1	inconclusive: 4.15 µM [inhibitor, partial curve, poor fit]
O=C(NC1CCC1)C1CCC(=O)N(Cc2ccccc2F)C1 (centres undefined)	inconclusive: 18.5 µM [inhibitor, single point]
CN(C)S(=O)(=O)NC(c1ccccc1)c1ccccc1	inactive
CC1=C(C(N)=O)C(c2cccs2)n2ncnc2N1 (centres undefined)	inconclusive: 0.0928 µM [inhibitor, partial curve, poor fit]
COc1cccc(SCc2noc(C(=O)NC(C)C)c2C(=O)NC(C)C)c1	inconclusive: 18.5 µM [inhibitor, single point]
